From PMC4336329 (PLoS ONE, 2015)
About 2,200 (0.71%) of roughly 310,000 compounds showed an effect of 50% or more. Effects have a minus sign here. Some of the results follow.

molecular target: human ether-à-go-go-related gene (hERG) potassium channel (human, UniProt Q12809); experiment: primary screen, population patch clamp on CHO cells stably expressing hERG
Sequence (Q12809 whole entry, looked up): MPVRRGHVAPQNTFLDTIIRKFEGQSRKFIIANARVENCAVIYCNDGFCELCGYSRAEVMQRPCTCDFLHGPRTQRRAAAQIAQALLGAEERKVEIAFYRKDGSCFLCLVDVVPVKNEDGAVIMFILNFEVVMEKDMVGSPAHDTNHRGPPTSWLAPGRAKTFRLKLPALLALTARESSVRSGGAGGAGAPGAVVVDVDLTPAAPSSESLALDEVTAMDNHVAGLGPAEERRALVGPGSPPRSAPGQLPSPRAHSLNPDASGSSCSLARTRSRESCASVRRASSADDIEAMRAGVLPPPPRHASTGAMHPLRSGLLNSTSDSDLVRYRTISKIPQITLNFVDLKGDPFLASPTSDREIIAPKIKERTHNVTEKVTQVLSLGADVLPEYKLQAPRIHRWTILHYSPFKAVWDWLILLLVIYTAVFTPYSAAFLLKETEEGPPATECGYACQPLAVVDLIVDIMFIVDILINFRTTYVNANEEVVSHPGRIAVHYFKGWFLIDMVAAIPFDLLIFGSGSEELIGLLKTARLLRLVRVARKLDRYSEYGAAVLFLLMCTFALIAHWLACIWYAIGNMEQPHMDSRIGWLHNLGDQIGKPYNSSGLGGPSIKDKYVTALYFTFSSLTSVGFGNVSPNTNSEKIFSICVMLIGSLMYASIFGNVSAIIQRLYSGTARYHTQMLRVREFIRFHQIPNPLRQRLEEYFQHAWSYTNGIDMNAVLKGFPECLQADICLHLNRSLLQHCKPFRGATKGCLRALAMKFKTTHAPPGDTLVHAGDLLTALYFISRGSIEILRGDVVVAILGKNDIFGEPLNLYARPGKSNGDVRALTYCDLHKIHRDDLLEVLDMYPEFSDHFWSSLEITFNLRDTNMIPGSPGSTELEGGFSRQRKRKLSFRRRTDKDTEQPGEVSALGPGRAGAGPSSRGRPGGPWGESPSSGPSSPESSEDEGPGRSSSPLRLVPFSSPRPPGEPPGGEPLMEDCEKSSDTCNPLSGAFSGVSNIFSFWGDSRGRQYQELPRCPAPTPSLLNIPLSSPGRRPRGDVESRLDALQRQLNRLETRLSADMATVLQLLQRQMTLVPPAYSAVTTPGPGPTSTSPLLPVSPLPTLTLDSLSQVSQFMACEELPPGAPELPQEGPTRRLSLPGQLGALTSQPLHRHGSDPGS

SMILES	hERG current change (%, negative = inhibition) at 1uM
CC(C)(C)N(NS(=O)(=O)c1ccc(F)cc1)c1ccccc1	13.2%
Cc1ccc(CC2CC(=O)N(c3cc(C)ccc3C)C2=O)cc1 (centres unmarked)	7.26%
Cc1c(O)ccc(/C(Cc2ccc3ccccc3n2)=N\O)c1O	7.2%
CCCCS(=O)(=O)C(=C1Nc2ccccc2N1)S(=O)(=O)CCCC	9.64%
O=C(Nc1ccc(C(F)(F)F)cc1)C1CC(=O)N(c2ccc3c(c2)OCCO3)C1 (centres unmarked)	4.74%
Fc1cccc(CSc2nnc3ccc(-c4ccncc4)nn23)c1	-23.8%
CC1CCCCN1S(=O)(=O)c1ccc([N+](=O)[O-])cc1 (centres unmarked)	11.8%
O=C(Nc1ccc(S(=O)(=O)NC2CCCCC2)cc1)c1ccco1	5.93%
O=C1CC(c2ccc(O)cc2)Oc2cc(O)cc(O)c21 (centres unmarked)	10.9%
COc1cc2cc(CN(CCN3CCCC3)C(=O)Nc3ccccc3Cl)c(=O)[nH]c2cc1OC	6.72%
O=C(O)COc1ccc(-c2nnn(CC(=O)O)n2)cc1	14.1%
Cc1ccc(C)c(Nc2ccc3nonc3c2[N+](=O)[O-])c1	6.69%
CNc1oc(/C=C/c2ccccc2)nc1C#N	7.25%
CCCCOc1ccc(C(=O)O)cc1	10.4%
CC1(C)Oc2ccc(C(=O)NC3CCCC3)cc2N(CC(=O)N2CCOCC2)C1=O	8.93%
CC(C)N1CCN(Cc2coc3ccccc3c2=O)CC1CCO (centres unmarked)	16.3%
C[C@H](CCC(=O)NCC(=O)O)[C@H]1CC[C@H]2C3[C@H](O)C[C@@H]4C[C@H](O)CC[C@]4(C)[C@H]3C[C@H](O)[C@]12C (some centres unmarked)	14.5%
CCSc1ccccc1C(=O)Nc1nncs1	8.79%
COC(=O)Cn1c(=O)c(=O)n(CC(=O)OC)c2ccccc21	18.8%
O=C(CCS(=O)(=O)c1cccs1)N1CCCC1	-2%

SMILES	hERG current change (%, negative = inhibition) at 1uM
Cc1ccsc1C(=O)OCC(=O)Nc1c(Cl)cccc1C(F)(F)F	8.26%
CC(=O)N1Cc2ccccc2CC1C(=O)NCc1ccccc1F (centres unmarked)	-0.311%
O=C(Nc1ccc2c(c1)nc1n2CCOC1)c1ccco1	7.91%
O=C(CCCCCNC(=O)N1CCn2c1nc1ccccc12)N[C@@H](Cc1ccccc1)C(=O)O	-9.39%
Cc1ccccc1CN1CCN(S(=O)(=O)c2cccc3nsnc23)CC1	11.9%
CC(=O)Cc1cc(O)c2ccccc2c1OC(=O)c1ccccc1	18.8%
CC(C)Cn1c(=S)[nH]c2cc(C(=O)NCc3ccccc3F)ccc2c1=O	-6.14%
CCCCSc1nc(C)c(CC(=O)OC)c(=O)[nH]1	13.1%
COc1ccccc1NC(=S)N1CCN(C(c2ccccc2)c2ccccc2)CC1	3.9%
CCS(=O)(=O)c1nc(S(=O)(=O)c2ccc(C)cc2)c(N2CC(C)CC(C)C2)s1 (centres unmarked)	13.2%
COc1ccc(N2CCCC2)c(NC(=O)COc2ccccc2Cl)c1	7.23%
CS(=O)(=O)N1CCCC(C(=O)Nc2ccccc2F)C1 (centres unmarked)	15.3%
OC[C@@H](O)[C@@H](O)[C@H](O)[C@H](O)CO	10.8%
Cc1ccc2ccccc2c1NC(=O)Cn1nnc(-c2cccnc2)n1	12%
C=CCc1cccc2cc(C(=O)OCC(=O)c3ccccc3)c(=O)oc12	-1.67%
COCCCN=Cc1c(O)[nH]c(=S)[nH]c1=O	4.97%
O=C(O)C(NS(=O)(=O)c1ccccc1)C(O)c1ccccc1 (centres unmarked)	18.4%
CCOc1ccc2c(C)c(C(=O)O)oc2c1OCC	5.32%
COc1ccc(NS(=O)(=O)c2cccc(C(=O)N(C)Cc3ccc(SC)cc3)c2)cc1	4.46%
O=c1c(Cc2c(F)cccc2Cl)c(O)ccn1CCCN1CCOCC1	-2.7%

SMILES	hERG current change (%, negative = inhibition) at 1uM
Cn1cc([N+](=O)[O-])c(C(=O)N/N=C/c2ccc3c(c2)OCO3)n1	1.71%
Cc1ccc(C(=O)Nc2nc(C)c(C(=O)N(C)C)s2)o1	7.47%
Cc1nc(C(=O)O)nn1-c1cc(Cl)ccc1Cl	16.1%
CCC(c1nnnn1Cc1ccccc1)N1CCN(c2ccccc2)CC1 (centres unmarked)	9.26%
Cc1cc(Oc2ccc(N)cn2)ccc1Cl	14.2%
CC(/C=C/C=C/c1ccccc1)=N/NC(=O)CNc1ccc(C)cc1	16%
O=C(CCCC(=O)OCC(F)(F)C(F)F)Nc1nccs1	13.1%
CC1CN(C(=O)COC(=O)c2cc(Cl)ccc2[N+](=O)[O-])CC(C)O1 (centres unmarked)	18%
Cn1cc([N+](=O)[O-])c(C(=O)NCc2ccco2)n1	24.8%
COC(=O)c1[nH]c2ccc(C)cc2c1NC(=O)Nc1ccc(OC)cc1	-9.72%
C[n+]1cccc(C(=O)NCC2CCCO2)c1.[I-] (centres unmarked)	7.7%
COc1nccnc1NS(=O)(=O)c1ccc(NC(=S)NC(=O)/C=C/c2ccc(F)cc2)cc1	2.18%
CCCn1c(N)c(C(=O)CSc2n[nH]c(-c3ccc(C)cc3)n2)c(=O)[nH]c1=O	18%
Cc1cc(/C=C(/C#N)C(=O)O)c(C)n1CCC(C)C	4.5%
CCN(C(=O)CSc1nncn1-c1ccccc1)C1CCS(=O)(=O)C1 (centres unmarked)	15%
CCN(CC)S(=O)(=O)N1CCC(C(=O)NC2CCCC2)CC1	3.5%
CSc1ccccc1NC(=O)C1=COCCO1	11.4%
O=C(CSC1=NS(=O)(=O)c2cc(Cl)ccc2N1)Nc1cccc(F)c1	6.29%
COc1cccc(NC(=O)CCNC(=O)C2CCN(S(=O)(=O)c3ccc(F)cc3)CC2)c1	14.9%
